Data as given in PubChem BioAssay (Tox21).
Values joined by “and” are separate entries in the source; they are usually repeats but may differ in a detail not shown here. Equal values may be shown once. This list was built around the results that the source calls inconclusive (neither active nor inactive); the mix of calls is not that of the screen. Where a call stands in place of a potency, no number is given. For some of these results: A potency beside an inconclusive call is a rough fit, not a confirmed value. Where a structure was tested more than once in an assay, its records may differ in their call. Active and inactive are the calls of the source. Unless noted, calls follow the shape of the dose curve; as a rule, active = well fitted curve in the direction sought with a large enough effect in the repeat runs; inconclusive = weak or mixed curves; inactive = no such curve, though single readings can be large; an effect the other way counts as inactive or inconclusive.

How the values were obtained:
[1] = biological target: Estrogen receptor (Homo sapiens) (UniProt P03372); assay: qHTS assay to identify small molecule agonists of the estrogen receptor alpha (ER-alpha) signaling pathway using the BG1 cell line (AID 743079); details: BG1Luc4E2 cells, ERE-luciferase agonist, 22 h; activation: at 70.3 µM (top of the series) unless noted; also: nearly all actives have a fitted effect of over 20% in size; also: potency is read from the fitted curve at half-maximal effect
[2] = biological target: Estrogen receptor (Homo sapiens) (UniProt P03372); assay: qHTS assay to identify small molecule agonists of the estrogen receptor alpha (ER-alpha) signaling pathway (AID 743075; calls by dose curve;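 also: HEK293 GripTite cells with ER-alpha and UAS-driven beta-lactamase reporter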; also: potency is read from the fitted curve at half-maximal effect)
[3] = qHTS assay to identify small molecule antagonists of the estrogen receptor alpha (ER-alpha) signaling pathway using the BG1 cell line (AID 743080; calls by dose curve;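 also: BG1 cells stimulated with 17beta-estradiol alongside compound; nearly all actives have a fitted effect of over 25% in size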; also: potency is read from the fitted curve at half-maximal effect); details: BG1Luc4E2 ERE-luciferase antagonist mode, luminescence; activity change, negative = inhibition: at 70.3 µM (top of the series) unless noted
Summary of the method: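 BG1-Luc-4E2 cells (endogenous full-length ER-alpha, stable 4×ERE-luciferase) were starved 5 days in phenol-red-free medium with 10% charcoal-stripped FBS, plated 24 h, then given compound plus 17beta-estradiol for 21.5 h at 37 C; ONE-Glo luminescence read after 30 min.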

[4] = qHTS assay to identify small molecule antagonists of the estrogen receptor alpha (ER-alpha) signaling pathway - cell viability counter screen (AID 743074; calls by dose curve;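 also: HEK293 cells carrying ER-alpha-UAS-bla reporter stimulated with 17beta-estradiol; nearly all actives have a fitted effect of over 45% in size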)
[5] = qHTS assay to identify aromatase inhibitors - cell viability counter screen (AID 743084); details: MCF-7 aro ERE viability, CellTiter-Fluor, 24 h; activity change, negative = cytotoxicity: at 70.3 µM (top of the series);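 also: cells stimulated with testosterone during compound exposure; nearly all actives have a fitted effect of over 55% in size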; also: potency is read from the fitted curve at half-maximal effect
[6] = qHTS assay to identify small molecule antagonists of the estrogen receptor alpha (ER-alpha) signaling pathway using the BG1 cell line - cell viability counter screen (AID 743081); details: BG1Luc4E2 viability, CellTiter-Fluor, 22 h; activity change, negative = cytotoxicity: at 70.3 µM (top of the series);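 also: compound given together with 17beta-estradiol as the ER stimulus; nearly all actives have a fitted effect of over 45% in size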; also: potency is read from the fitted curve at half-maximal effect
Aromatase (Homo sapiens) = Aromatase (Homo sapiens) (UniProt P11511); assay: qHTS assay to identify aromatase inhibitors (AID 743083); also: nearly all actives have a fitted effect of over 55% in size; also: potency is read from the fitted curve at half-maximal effect
Tags tell the direction and shape of the fitted curve or compound fluorescence and quenching.

Sequence of UniProt P03372 (P03372 whole entry, looked up): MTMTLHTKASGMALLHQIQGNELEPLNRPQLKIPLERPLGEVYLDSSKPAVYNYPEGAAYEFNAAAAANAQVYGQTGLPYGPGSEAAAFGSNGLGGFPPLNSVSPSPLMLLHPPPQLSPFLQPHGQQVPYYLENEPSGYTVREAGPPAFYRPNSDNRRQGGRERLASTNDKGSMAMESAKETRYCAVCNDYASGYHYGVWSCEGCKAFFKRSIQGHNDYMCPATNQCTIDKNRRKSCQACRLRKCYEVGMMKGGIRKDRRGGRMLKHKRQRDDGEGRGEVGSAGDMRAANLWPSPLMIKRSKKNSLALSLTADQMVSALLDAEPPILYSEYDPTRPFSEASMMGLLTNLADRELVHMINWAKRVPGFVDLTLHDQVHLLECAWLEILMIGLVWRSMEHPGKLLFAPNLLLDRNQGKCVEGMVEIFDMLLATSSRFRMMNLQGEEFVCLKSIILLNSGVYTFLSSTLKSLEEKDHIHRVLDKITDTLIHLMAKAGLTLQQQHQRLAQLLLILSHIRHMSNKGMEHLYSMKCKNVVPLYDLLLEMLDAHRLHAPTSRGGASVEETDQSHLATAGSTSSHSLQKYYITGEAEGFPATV
Sequence of UniProt P11511 (P11511 whole entry, looked up): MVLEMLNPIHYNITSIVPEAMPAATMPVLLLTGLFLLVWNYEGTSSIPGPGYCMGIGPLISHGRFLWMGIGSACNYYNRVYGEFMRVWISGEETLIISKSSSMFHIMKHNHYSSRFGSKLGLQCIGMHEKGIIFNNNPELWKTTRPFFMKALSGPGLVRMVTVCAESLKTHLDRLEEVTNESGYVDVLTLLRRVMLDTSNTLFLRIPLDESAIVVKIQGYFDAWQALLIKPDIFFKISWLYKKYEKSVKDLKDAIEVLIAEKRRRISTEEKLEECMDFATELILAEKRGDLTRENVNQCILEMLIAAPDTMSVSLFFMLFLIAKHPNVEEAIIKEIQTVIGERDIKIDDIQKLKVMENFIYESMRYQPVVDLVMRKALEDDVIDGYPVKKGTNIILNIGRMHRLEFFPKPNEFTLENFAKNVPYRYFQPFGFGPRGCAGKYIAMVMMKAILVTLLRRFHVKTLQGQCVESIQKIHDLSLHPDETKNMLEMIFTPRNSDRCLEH

Compound: CC1OCCC1=O (stereo not drawn)
- Potency [1]: inactive

Compound: O=C(O)Cc1ccccc1Oc1ccc(Cl)cc1Cl
- Potency [1]: inactive

Compound: O=C(/C=C/C=C/c1ccc2c(c1)OCO2)N1CCCCC1
- Potency [2]: inactive
- Potency [1]: active: 1.37 µM and active: 3.86 µM
- Potency [3]: inconclusive: 865 nM [rising, full curve] and inconclusive: 1.37 µM [rising, full curve]

Compound: CCC(C)OC(C)CC (stereo not drawn)
- Potency [1]: inactive

Compound: CC(C)COC(=O)c1ccc(N)cc1
- Potency [2]: active: 26.8 µM [activator]
- Potency [3]: inconclusive: 11.9 µM [rising, partial curve]

Compound: C=C(C)C1CC=C(C)C(OC(C)=O)C1 (stereo not drawn)
- Potency [1]: inactive
- Potency [3]: inactive

Compound: CC(C)(C(=O)c1cccnc1)c1cccnc1
- Potency [2]: inactive
- Potency [1]: inactive

Compound: Clc1ccc2nsnc2c1NC1=NCCN1
- Potency [1]: inactive

Compound: CS(=O)(=O)OCCCCOS(C)(=O)=O
- Potency [1]: active: 11.9 µM

Compound: O=C(O)c1cccc(C(=O)O)c1
- Potency [1]: inactive

Compound: CCOC(=O)c1ccc(I)cc1
- Potency [1]: inactive

Compound: CCO[Si](CC(C)C)(OCC)OCC
- Potency [4]: inactive
- Potency [5]: inconclusive: 77 µM [cytotoxic, partial curve, poor fit]

Compound: COC(=O)/C=C/c1ccccc1
- activation [1]: inconclusive: 0.708% [phenotype inactive]

Compound: CC(=O)CC(=O)Nc1ccc2[nH]c(=O)[nH]c2c1
- Potency [2]: inactive
- Potency [6]: inactive

Compound: CC1=CC(O)CC(C)(C)C1 (stereo not drawn)
- Potency [1]: inactive

Compound: N#CCCCC(C#N)CCC#N (stereo not drawn)
- Potency [1]: inconclusive: 48.6 µM [activator, partial curve]

Compound: CN1C(CSCC(F)(F)F)Nc2cc(Cl)c(S(N)(=O)=O)cc2S1(=O)=O (stereo not drawn)
- Potency [2]: inactive

Compound: Cc1cn[nH]c1
- Potency [1]: inactive

Compound: C=CC/C=C/C
- Potency [1]: inconclusive: 63.1 µM [activator, partial curve, poor fit]

Compound: O=C(O)Cc1cn(-c2ccccc2)nc1-c1ccc(Cl)cc1
- Potency [3]: inactive

Compound: Cc1cccc(OCCOc2cccc(C)c2)c1
- activation [1]: inconclusive: 0.48% [phenotype inactive] [at 95 µM]
- activity change, negative = inhibition [3]: inconclusive: 4.4% [at 95 µM]

Compound: CC1=CCC(=C(C)C)CC1
- Potency [1]: active: 68.6 µM
- Potency (Aromatase (Homo sapiens)): inactive

Compound: CC1(C)S[C@@H]2[C@H](NC(=O)C(c3ccccc3)S(=O)(=O)O)C(=O)N2[C@H]1C(=O)O (stereo partly drawn)
- Potency [6]: inconclusive: 18.8 µM [cytotoxic, single point]

Compound: Cc1cccc(C)c1OCC(C)N (stereo not drawn)
- Potency [3]: inactive

Compound: CCOC(=O)[C@@](C)(N)Cc1ccc(O)c(O)c1
- Potency [3]: inactive

Compound: Brc1cc2ccccc2c2ccccc12
- Potency [3]: inactive

Compound: O
- Potency [6]: inactive

Compound: N#CCCN(CCO)CCO
- Potency [3]: inactive
- Potency [6]: inactive

Compound: O=C(O)CCC(=O)C(=O)O
- Potency [3]: inactive

Compound: COc1cc(C(=O)NCCCCCC(=O)O)cc(OC)c1OC
- Potency [3]: inactive

Compound: NC(N)=Nc1nc(CSCC/C(N)=N/S(N)(=O)=O)cs1
- Potency [3]: inconclusive: 15 µM [rising, full curve, poor fit]

Compound: COc1cc2[nH]c(=O)[nH]c(=O)c2cc1OC
- activation [1]: inconclusive: 12.2% [phenotype inactive] [at 32.5 µM]
- Potency [5]: inactive

Compound: Cc1cc(C)c(N)cc1C
- Potency [3]: inactive

Compound: CCCCCCCCO[C@@H]1O[C@H](CO)[C@@H](O)[C@H](O)[C@H]1O
- Potency [3]: inactive

Compound: Clc1ccnc(Cl)n1
- Potency [3]: inactive

Compound: CCCC/C=C/CCCCO
- activation [1]: inconclusive: 19.2% [phenotype inactive]
- Potency [6]: inconclusive: 68.6 µM [rising, partial curve, poor fit]

Compound: CCNC(=O)NCc1cccc(Cl)c1
- Potency [3]: inactive

Compound: Clc1nc2ccccc2nc1Cl
- Potency [3]: inconclusive: 61.8 µM [rising, partial curve]

Compound: CC(C)(C)NCCNC(C)(C)C
- Potency [3]: inactive

Compound: CC1=CCC(C(C)(C)O)CC1 (stereo not drawn)
- Potency [1]: inactive
- Potency (Aromatase (Homo sapiens)): inactive
- Potency [5]: inactive

Compound: CO[Si](C)(C)OC
- Potency [1]: inactive
- Potency [3]: inactive

Compound: O[C@@H]1CO[C@H]2[C@@H]1OC[C@@H]2O
- Potency [3]: inactive

Compound: Fc1ccccc1
- Potency [1]: inactive
- Potency [3]: inactive

Compound: Nc1ccccc1O
- Potency [1]: inconclusive: 60.3 µM [inhibitor, partial curve]
- Potency [3]: inconclusive: 33.9 µM [falling, partial curve]
- Potency [6]: inconclusive: 38.1 µM [cytotoxic, partial curve, poor fit]

Compound: OC[C@@H](O)[C@@H](O)[C@H](O)[C@@H](O)CO
- Potency [1]: inactive
- Potency [3]: inactive

Compound: CC(O)c1ccccc1 (stereo not drawn)
- Potency [3]: inactive
- Potency (Aromatase (Homo sapiens)): inactive

Compound: COc1ccc(C(=O)NCc2ccc(OCCN(C)C)cc2)cc1OC
- Potency [3]: inconclusive: 26.6 µM

Compound: C=C1C[C@@]23CC[C@H]4[C@@](C)(CCC[C@@]4(C)C(=O)O[C@@H]4O[C@H](CO)[C@@H](O)[C@H](O)[C@H]4O)[C@@H]2CC[C@]1(O[C@@H]1O[C@H](CO)[C@@H](O)[C@H](O[C@@H]2O[C@H](CO)[C@@H](O)[C@H](O)[C@H]2O)[C@H]1O[C@@H]1O[C@H](CO)[C@@H](O)[C@H](O)[C@H]1O)C3
- Potency [1]: inactive
- Potency [6]: inconclusive: 77 µM [rising, partial curve, poor fit]

Compound: Cc1c(C(N)=O)cc([N+](=O)[O-])cc1[N+](=O)[O-]
- Potency [3]: inactive

Compound: CCOC(=O)/C=C/C(=O)OCC
- Potency [1]: inactive
- Potency [6]: inactive

Compound: O=C(Nc1ccc2c(O)c(N=Nc3ccc(N=Nc4ccc(S(=O)(=O)O)cc4)cc3)c(S(=O)(=O)O)cc2c1)c1ccccc1
- Potency [1]: inconclusive: 27.3 µM [inhibitor, partial curve, poor fit]
- Potency [3]: inconclusive: 21.7 µM [falling, partial curve]
- Potency [6]: active: 27.3 µM
- Potency (Aromatase (Homo sapiens)): inconclusive: 30.6 µM [inhibitor, partial curve]

Compound: Cc1c[nH]c(=S)[nH]c1=O
- Potency [1]: inactive
- Potency (Aromatase (Homo sapiens)): inconclusive: 68.7 µM [inhibitor, single point]
- Potency [5]: inconclusive: 68.7 µM [cytotoxic, single point]

Compound: C=C1CCC2CC1C2(C)C (stereo not drawn)
- Potency [3]: inactive

Compound: O=C(/C=C/c1ccccc1)OCc1ccccc1
- activation [1]: inconclusive: 13.9% [phenotype inactive]
- Potency [3]: inconclusive: 48.6 µM [rising, partial curve]

Compound: C(=C\c1ccccc1)/c1ccccc1
- Potency [1]: active: 60.6 µM
- Potency [3]: inconclusive: 12.1 µM [rising, full curve]

Compound: OCC(CO)(CO)CO
- Potency [1]: inactive
- Potency [5]: inactive

Compound: CC(=O)c1ccc([N+](=O)[O-])cc1
- Potency [6]: inactive

Compound: CC(CO)CO
- Potency [6]: inactive
